# Laboratory results: the supplement of paper PMC10185492
# Some of the results follow. Values come from read counts of a selection and are noisy.
# Tested on: SARS-CoV-2 3CLpro (nsp5)
# Assay: substrate phage enrichment score (protease-eluted vs HEPES control, +1 offset) (ratio); higher = better cleaved substrate
# Conditions: selection round: 3; protease elution time: 0.5 h
# Description: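 Random heptapeptide substrate phage display (M13 pIII fusion, heptapeptide between an N-terminal biotinylated AviTag GLNDIFEAQKIEWHE and pIII; phages immobilised on streptavidin) eluted by cleavage with 50 nM protease in 20 mM HEPES at 37 °C. Selected phages were NGS sequenced, and the enrichment score is (reads in protease sample + 1)/(reads in HEPES blank-selection control + 1).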
row,Substance,substrate phage enrichment score
1,HEQYFQG,16
2,HSWLNAC,1.9
3,VWPRGPQ,> 42
4,EIGCRLM,> 27
5,RPGVDFR,5.6
6,DYHGGNP,1.67
7,PSQNRTT,> 24
8,NTRPKLQ,> 29
9,SAAANHH,1.53
10,SATTRLQ,> 25
11,ESGGRIM,> 21
12,FNSGPQR,> 29
13,MPSRYSP,24.5
14,CAAAHHQ,0.803
15,ACEATFQ,> 28
16,SGSSWES,> 39
17,SRPAQLQ,8.33
18,TCIPIIQ,8.25
19,KETQETE,9
20,RSVPQAE,> 63
21,EHGKLRS,> 25
22,NAHPTLQ,> 59
23,SSARRPG,4.54
24,VNSAGQR,4.91

row,Substance,substrate phage enrichment score
1,GTAAAHH,0.91
2,GRSSSDM,3
3,ESGARLG,97
4,SERTLKC,1.68
5,SNGTRTV,0.294
6,RVTLHGR,> 33
7,RHLVSKP,10
8,KRGNAAA,3
9,KCSHPSR,> 29
10,PPKAQSG,2.71
11,VPQNAGT,3.83
12,PLVGTHT,> 25
13,AQSDEIP,5
14,QAAAHHH,1.22
15,SRAAHHH,0.786
16,PYVSPGP,> 23
17,VNGNDLQ,1.75
18,RTEPAAH,> 34
19,FISPSKQ,10
20,TDRSHSR,> 26
21,TGCKQEK,> 30
22,HGTSALQ,> 23
23,RHHHHGA,0.438
24,ACMTVPG,> 21

row,Substance,substrate phage enrichment score
1,HFQGGSA,2.25
2,NSAAAHH,0.887
3,SVPTAHH,> 25
4,GVSQPHH,2.3
5,NWAAHHH,0.929
6,RYQELNP,> 35
7,CSTLLQS,> 138
8,VRPHNII,2.03
9,NRNAGIE,> 39
10,QTGWCSD,1.35
11,VSCSSCN,> 38
12,NSHLPMK,1.44
13,LKDRNLT,3.83
14,YSAAHHH,0.61
15,RPGHVQI,> 22
16,TSSRENR,> 34
17,PGLGSMA,> 43
18,TKPGESP,1.75
19,RYIQSTT,8.5
20,ACAAAHH,0.391
21,NRGGLKQ,16
22,TNKWNVG,5.25
23,VQTRLQS,31
24,NATAHHH,2.58

row,Substance,substrate phage enrichment score
1,TPCRLQH,> 22
2,HWTREYG,> 26
3,CTGYCYS,4.8
4,GDEMNPA,2.86
5,YDVQKIR,0.947
6,SATQTTS,10.3
7,KYAPSSS,> 26
8,LHFQGGS,1.36
9,RPAASRQ,2.83
10,AKRGELR,2.69
11,HRAGYMH,2.2
12,AHATFEL,> 21
13,IRSGDKQ,> 24
14,PKLQSHQ,> 24
15,CVHATSS,6.6
16,ASTSWVK,2.8
17,SAAAHHR,1.2
18,VMWCLHG,> 26
19,ETAAHHH,1.74
20,ESEQMSP,1.56
21,STAHHHH,0.84
22,SWAAHHH,1.29
23,QSPNSSG,> 33
24,NTAAHHH,1.03

row,Substance,substrate phage enrichment score
1,RGCTWSE,> 62
2,VAKPQST,4.5
3,IKAAHHH,0.85
4,AYKATLQ,> 38
5,SRVKAHT,2.14
6,LEFDLTT,> 21
7,FPAAHHH,1.36
8,ECKVQLN,11.7
9,KPFPQPR,1.3
10,RDACFLT,1.9
11,TDLNGTQ,> 27
12,GDKAVMH,> 42
13,RGIVMQS,10.7
14,MSTRLQC,> 79
15,RAPTAAD,26.5
16,GLPASRL,> 21
17,NQWNEGY,> 25
18,RVVVRPH,1.44
19,AESMESR,> 26
20,SQTSRMQ,10.5
21,VKCPGTD,4.5
